Laboratory results as given in the RNAGym collection of RNA variant scans (doi:10.7554/elife.90254).
The source gives no read counts; variants with many changes may rest on few reads.

B1: OR4K15 (parent)
chain: GUUAACGGUCAUAGGCCAUGGAAACUAGGAGCACCAUUUCGCUGCCAGUGAAGAAAUGAACAAAGAAAAUCUGGGCCAGGCAGGCAUCAAAAGAAAUAGUCUUGCGCUCAACCAGAAAGUCUGUAAUCAUUUUAAGGGUA

Variants of: B1
Assay: self-cleavage, relative activity (ratio to wild type); higher = more cleavage; in vitro, sequencing; the parent is a self-cleaving ribozyme

Row | Variant | self-cleavage
1 | A24U U57A A116G | 0.22
2 | U26A A47G A68G A69G U87C | 0.18
3 | A24G A27G A86G A95G | 1.38
4 | A24G A47G U70C A94G A116G | 1.68
5 | A24G A47G C76U | 0.2
6 | A24G A78U A129G U131G A140G | 0.1
7 | U26C U70C A114G | 0.08
8 | U26C U38C A92G | 1.81
9 | A24G A111G U132C | 0.02
10 | A24G A30G U108C | 0.07
11 | A24G U39C A56C A67G | 1.16
12 | A24G A52G G53U | 1.09
13 | A24G U39C A51U U87C A118G | 1.11
14 | U26A A67U A95G | 1.81
15 | A24G A66G C85U U120C | 0.97
16 | A24G A118U G123A | 1.99
17 | U26C A60G A82G | 0.37
18 | A24U A52G A89G A96G | 0.69
19 | U26C A90U A95G A117G | 1.78
20 | U26C A47G A63U | 0.78
21 | A24G A30G A89G | 1.37
22 | A24G A56G U87C A92G U97G | 0.69
23 | A24U A118G U133C | 1.23
24 | A24G A33U A55G A82G U122C | 0.24

Row | Variant | self-cleavage
25 | A24G A27G A126G | 0.94
26 | A24G A69U A96G U120C | 1.96
27 | U26A A111G A129G | 0.01
28 | U26C U57A U100C | 1.66
29 | A24G A51G A90G A96G A116U | 0.22
30 | U26A A56C G74A A90G U103C U122C A126G U127C | 0
31 | A24G C32A U39A A52U | 1.1
32 | A24C U100C A116G | 1.79
33 | A24G A47U A90G U103C | 0.32
34 | U26C A27G U49C U102A U124A U139C | 0.55
35 | A24C U70C A78G A114U | 0.03
36 | A27G A33G A47G U70C A111G | 0.06
37 | U26C A27G U37C A63G U87C A126G | 2.43
38 | U26A U57C A69U | 1.2
39 | A24U A51G A118G | 0.69
40 | C25U A78G A135U | 0.24
41 | C25U U26C A78G U102C U131C | 0.24
42 | U26C A51G G83A | 1.26
43 | A24G U38C A51G A117U | 0.99
44 | A24G A47G A69G | 0.98
45 | U26C A52G U97C | 1.49
46 | A24G A33G A63G A111G | 0.05
47 | A24U A82G C121A | 0.05
48 | A24G A55G A60G | 0.86

Row | Variant | self-cleavage
49 | U26C A94G U120A U133C | 1.94
50 | A27C G28U U87C A94G | 0.83
51 | A24G A27C A36G U39C | 0.78
52 | A24G U43C U97C U127A | 1.74
53 | A24G A60G G79A | 0.11
54 | U26C A67G A96U A111G | 0
55 | A24G U37A U43C A55U A89C | 1.51
56 | A24U A68G A116G U120C | 0.21
57 | C25A A27G A82G A126U | 0.69
58 | A24U A66G U122C | 1.16
59 | A24G A27G A129U | 0.66
60 | U26A A64G U108C | 0.01
61 | A24G A36G C61A A67G C109U | 0.48
62 | U26C U38G U49A A55G A69U | 1
63 | A24U A62G A89G | 1.3
64 | U26C U49C A94G U132A | 1.55
65 | A27G A62G A95G U97C G136A | 0.12
66 | U26A A36G A91G A117G U131C | 0.68
67 | A24G G115A A135G | 0.22
68 | A24G A89U A111G | 0
69 | U26A A82U U100A | 0.04
70 | A24G U39A C71U | 0.68
71 | U26A A27G A64C | 1.07
72 | U26A U108A A117G | 0.01

Row | Variant | self-cleavage
73 | A24G U26C A27G U39A A67G | 0.94
74 | A24U U38A A118U | 0.4
75 | U26C U49A U70C A92G | 0.42
76 | A24U A56G A78U | 0.13
77 | A24G U102G A134G | 0.22
78 | A24G A27G G73A A90G | 0.15
79 | A24G A64U U72C U108C | 0.04
80 | A24G A66U A96G | 1.16
81 | A24G G65A A98U U131C A135G | 1.33
82 | A24U A33G U37C A64G A110G | 0.07
83 | A24G C32G A47G | 0.79
84 | A24G U49A A62G U108A A118U | 0
85 | A24G U26A U43C | 1.18
86 | U26C A69G A90G | 1.42
87 | A27C A64G A68G | 1.31
88 | A24C U102A U108A | 0
89 | A24G A56G U70C | 0.55
90 | A27G A47G A59G | 0.73
91 | A24U A92G G106A A125G | 0.01
92 | U26C U37C C113U U122C | 0.02
93 | A24G A67G A92G G123A | 0.34
94 | A27G A64G A68G A90G | 0.71
95 | U26C A67G U122C | 0.75
96 | A27G A55G U57C | 0.94

Row | Variant | self-cleavage
97 | A24G G29U U37A U38C U39C A89C | 0.62
98 | A24G A90U U102C U122C | 0.94
99 | A24G A55G A91G A118G A140G | 0.5
100 | A24G A67G A90G U108C U139A | 0.03
101 | U26C A56G A78G | 0.3
102 | A24G A110U U127G | 0.92
103 | A24G G28U C76G A90U | 0.13
104 | U26C A36G A116G | 0.88
105 | U26C A54G G65A | 1.78
106 | A24G A51G A114U A118G | 0.04
107 | C25U U39C A51G | 1.95
108 | U26C U122C A125G | 0.28
109 | U26C A47G A64U A111G | 0.04
110 | A24G A98G A114G | 0.29
111 | A24G A90G U130C | 1
112 | A24G A86G U87C | 0.92
113 | A24G A59G U87C A126G | 0.58
114 | A24G A59G A66G U108A | 0.03
115 | A27G A30G A64G A69G | 0.52
116 | A24G U57A U70A A114G G137A | 0.15
117 | A27G A36G U49C A90G A111G U122G | 0.01
118 | A24G C40A A118G U122C | 0.95
119 | C25U C88A U127C | 1.75
120 | U26C A82G G123A A129G | 0.22

Row | Variant | self-cleavage
121 | A24G A33G U49C A90G U100A | 0.24
122 | U26C G93A A117G U132C | 2.17
123 | C25U A27U A52G U100C U120C | 1.25
124 | A24G A30G A54U A82G U100C U108C | 0.05
125 | A24G A51G U70C | 0.72
126 | A27G A52G U132C | 0.83
127 | A24U U87C A95G U108C A135G | 0
128 | A24G A47U A129C | 0.6
129 | A24G A78G A129G U130C | 0.29
130 | A24G A30U A51G A82U | 0.11
131 | A24G A56G A63G C81U | 0.37
132 | U26A A33U A47G | 0.67
133 | U26C U43A U100C | 2.25
134 | A24G A56G A134U | 0.64
135 | A24G U38C A47G A56G | 0.83
136 | A27G A47U U87C | 0.56
137 | A24G A78G U87C U127A | 0.43
138 | U26A A51U A55G G123A A129G | 0.34
139 | A24G U39A U70A A82U A92G | 0.14
140 | A24G A27U A66G G137A | 1.05
141 | U26C A27G U43C A51U A54G | 1.53
142 | A24G A51U A55G A98G A126G A135G G136A | 0.31
143 | A24U A67G A91G | 1.23
144 | A24G A60U A116U | 0.43

Row | Variant | self-cleavage
145 | A24U U49C A90G | 1.14
146 | A24G A52G A91G | 1.18
147 | A24G U72A G84U A114G | 0.04
148 | A24U A91G U100C | 2.51
149 | A24G A60U A78G A114G U130C | 0.04
150 | A24G A117G U130G | 0.91
151 | U26C G79A U100C U131C U139C | 0.05
152 | U26C U103C U139A | 0.65
153 | U26C A60G A92U | 1.89
154 | A24G C113A U130C | 0
155 | U26C A30G A33U | 1.03
156 | A24U A27G C71A A95G U132C | 0.51
157 | A24U A118G U132C A140C | 1.04
158 | A24G A33G A47G A56G A95G | 0.88
159 | A24G A30U A82U A89C | 0.15
160 | U26C C32U A82G | 0.63
161 | U26C U37C U38A | 1.62
162 | A24G U57C C107U | 0.02
163 | C25U A114U A126G U139C | 0.03
164 | A27G A33U A56G U70C | 0.84
165 | U26C A54G A118G | 1.9
166 | A24G A94U U108C U127A | 0.01
167 | A24G A82U U108C | 0.01
